Test results reported in PubChem BioAssay AID2202238 (Ras Initiative Chemistry Research Team, Frederick National …, 2025).
This is one part of the list. Shown are side measurements of this screen, not its main read-out; they come without a call.

Target: GTPase KRas (Homo sapiens) (UniProt P01116)
Assay: Cysteine mutants labelled by reactive fragments (mass read-out) (AID 2202238)
Set-up: protein at 5 µM with 500 µM competing thiol for 1.5 h
Details: KRAS G12D cysteine mutants, disulfide tethering, MALDI-TOF labeling, stronger effect = higher value, fragment at 500 µM
[1] = measured here: G75C mutant labeling
[2] = measured here: H94C mutant labeling
[3] = measured here: I36C mutant labeling
[4] = measured here: L120C mutant labeling
[5] = measured here: M67C mutant labeling
[6] = measured here: M72C mutant labeling
[7] = measured here: N86C mutant labeling
[8] = measured here: P121C mutant labeling
[9] = measured here: S122C mutant labeling
[10] = measured here: S136C mutant labeling
[11] = measured here: G60C mutant labeling
[12] = measured here: N26C mutant labeling

Sequence of UniProt P01116 (P01116 whole entry, looked up, the tested form may be a part): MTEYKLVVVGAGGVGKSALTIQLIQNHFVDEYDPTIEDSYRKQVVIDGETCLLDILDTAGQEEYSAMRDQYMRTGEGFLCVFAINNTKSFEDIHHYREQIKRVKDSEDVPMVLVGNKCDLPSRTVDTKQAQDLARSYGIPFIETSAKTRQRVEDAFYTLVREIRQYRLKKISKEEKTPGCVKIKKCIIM

Compound	percent labeling [1]	percent labeling [2]	percent labeling [3]	percent labeling [4]	percent labeling [5]	percent labeling [6]	percent labeling [7]	percent labeling [8]	percent labeling [9]	percent labeling [10]	percent labeling [11]	percent labeling [12]
O=C(CCS)NCc1nccn1CC(F)(F)F	9.7%	23.1%	31.7%	22.9%	25.4%	17.4%	24.5%	25.9%	24.5%	40.4%		
Cc1ccnc(-c2n[nH]c(C(C)NC(=O)CCS)n2)c1 (stereo not given)	10.3%	19.5%	26.7%	36.1%	37.8%	19.5%	14.2%	27.4%	33%	43%		
O=C(COc1ccc2ccccc2c1)NCCS	7.6%	10.3%	8.7%	12.6%	8.2%	29.4%	2.7%	8.2%	4.9%	10.5%	13.2%	20.7%
O=C(CCS)NC1(c2ccc(Br)s2)CC1	18.4%	52.3%	34%	30.3%	35%	37.8%	26.8%	30.5%	23.8%	51.8%		
COc1ccc2ccccc2c1CNC(=O)CCS	12.9%	30%	24.4%	17.8%	41.8%	39.3%	22.7%	19.2%	17.8%	41.8%		
CC(=O)Nc1ccc(-c2csc(NC(=O)CCS)n2)cc1	9.3%	20.4%	17.5%	7.9%	11%	29.3%	4.3%	7.5%	5.2%	19.9%		
O=C(NCCS)c1ccc(NC(=O)c2ccc(=O)[nH]c2)cc1	5.3%	7.4%	8.2%	6%	7.7%	22.5%	9.6%	6.4%	4.9%	8.2%	10.5%	23.1%
CN(CC(=O)NCc1cccs1)C(=O)CCS	10.1%	34.6%	33.2%	35.5%	36.5%	29.7%	24.4%	33.3%	35%	51.1%		
O=C(CCS)NCCc1cn2ccccc2n1	16.7%	21.5%	28.1%	23%	38.1%	21.3%	12%	30.7%	28.5%	48.8%		
O=C(CCS)NCc1cc(Cl)c2c(c1)OCO2	16.5%	34.7%	37.6%	30.5%	36%	48.1%	20.1%	29.1%	29.9%	47.9%		
Cn1cc(-c2nn(C)cc2C(=O)NCCS)cn1	14.3%	34.7%	32.9%	33.4%	38.6%	28.2%	17.7%	33%	25.4%	49.7%	29.3%	44%
Cn1c(C(=O)NCCS)cc2cc(C(F)(F)F)ccc21	15.4%	16.7%	10%	13.9%	10.3%	29.2%	13.2%	11.3%	8.2%	11.8%	27.9%	29%
O=C(NCCS)c1ccc(N2CCCC2)c(F)c1	15.4%	11%	8.2%	13.7%	8.5%	67.7%	8.9%	10.2%	8.8%	19.4%	17.4%	34.8%
Cc1ccc(OCc2ccc(C(=O)NCCS)o2)cc1	14.5%	18%	10.8%	22.2%	13.1%	33.5%	12.9%	14.7%	11.4%	18.1%	18.5%	26.7%
Cc1cnc(C(=O)NCCS)cn1	23%	30.4%	26%	35.6%	29.3%	29.4%	26.3%	28.4%	30.2%	38.2%	31.8%	35.1%
COc1ccc(Cl)cc1C(=O)N1CCCC1C(=O)NCCS (stereo not given)	17.2%	38.5%	36.5%	41.8%	33.8%	36.3%	35.7%	32.6%	28.4%	56%	42.9%	36.1%
COCCn1c(CCN(C)C(=O)CCS)nc2ccccc21	12.7%	40.7%	42.7%	31.4%	53.7%	19.3%	23.4%	31.8%	33.1%	67.4%		
O=C(NCCS)C1CCCC2CC(O)CCC21 (stereo not given)	14.2%	35.9%	21.6%	32.6%	30.6%	19.6%	29%	30.4%	31.1%	48.7%	33%	35.4%
CCC(=O)Nc1ccc(OC)cc1NC(=O)CCS	12.4%	35.4%	31.4%	30.6%	33.8%	23.5%	22.1%	34.3%	30%	50.1%		
O=C(NCCS)C1CCCN1Cc1ccc(Cl)cc1 (stereo not given)	26.8%	42%	21.6%	22.6%	32.8%	45.5%	24%	22.8%	18.7%	33.8%	52.6%	45.3%
O=C(CNC(=O)COc1ccccc1)NCCS	15.5%	31.2%	24.5%	46.9%	36.4%	24.7%	27.3%	35.6%	33.3%	39.6%	31%	41.8%
CN(C(=O)CCS)C1CCC(NC(=O)OC(C)(C)C)CC1 (stereo not given)	20%	43.8%	33.7%	29%	33.9%	24.2%	32.9%	35.5%	37.7%	54.7%		
O=C(NCCS)c1ccn(-c2ncc(C(F)(F)F)cc2Cl)n1	16.9%	11.4%	7.9%	23.2%	8.1%	27.1%	8.6%	7.2%	7.3%	20.2%	17.9%	24.4%
Cc1cc2c(N3CC(NC(=O)CCS)C3)nccn2n1	14.1%	27.4%	28.2%	25.1%	41.3%	29.2%	14.2%	25.8%	26.3%	40.8%		

Compound	percent labeling [1]	percent labeling [2]	percent labeling [3]	percent labeling [4]	percent labeling [5]	percent labeling [6]	percent labeling [7]	percent labeling [8]	percent labeling [9]	percent labeling [10]	percent labeling [11]	percent labeling [12]
CN1C(=O)C(C)(C)c2cc(C(=O)NCCS)ccc21	17.5%	34.2%	25.2%	40.8%	34.5%	52.1%	23%	27.2%	30.3%	52.9%	37.7%	48.1%
CC(C)n1nc(NC(=O)CCS)cc1CO	12.2%	32.5%	31.2%	28.7%	23.4%	17.9%	22.1%	31.8%	32.2%	45.7%		
Cn1nc2cc(Br)ccc2c1C(=O)NCCS	8.3%	12.6%	10.6%	9.8%	10.1%	18.5%	9.6%	12.6%	6.6%	10.8%	27.2%	36.2%
CN1CCOCC1c1n[nH]c(CNC(=O)CCS)n1 (stereo not given)	7.3%	27%	29.2%	32%	33.5%	13%	12.8%	28.8%	36.3%	35.5%		
COc1cc(-n2cnnn2)c(Cl)cc1C(=O)NCCS	7.3%	12.6%	13.5%	0%	11.6%	22.5%	12.9%	12.9%	8.9%	18.8%	15.2%	18.7%
Cc1ccc2nc(C)c(C(=O)NCCS)cc2c1	13.2%	15.5%	7.9%	10.5%	10.4%	16.6%	10.8%	11.9%	8.6%	10.3%	20.2%	44.4%
CC(C)(C(=O)NCCS)c1cccc(C(F)(F)F)c1	16.4%	27.4%	15.4%	26.5%	22.5%	29.7%	19.2%	19.3%	18.8%	29.1%	39.4%	29.6%
O=C(CCS)Nc1nnc(Cc2ccc(C(F)(F)F)cc2)s1	7.8%	13.1%	11.8%	12.2%	13.9%	18.3%	13.7%	15.4%	4.6%	32.4%		
O=C(CCS)NCc1cc(C2CCC2)n[nH]1	17.9%	33.5%	40.7%	27.7%	35%	34.1%	22.2%	36.6%	34.2%	47%		
N#Cc1cnn(-c2ccc(C(=O)NCCS)cc2)c1N	11.8%	23.4%	20.3%	24%	23.8%	36.6%	23.9%	20.9%	18.8%	27.4%	27%	35.8%
COc1cccc(OCCNC(=O)CCS)c1O	12.2%	29.6%	35.7%	38.4%	32.9%	22.7%	14.3%	33%	35.8%	46.6%		
CCC(Cc1cccc(Br)c1)C(=O)NCCS (stereo not given)	17.1%	25.1%	16.7%	16%	22.7%	34.9%	14.2%	20.7%	13.8%	22.4%	51.6%	28.3%
O=C(CCS)Nc1cccc(OC2CCCCC2)c1	13.1%	16.7%	12.1%	21.9%	9.9%	33.7%	9.6%	16.9%	12.5%	29.4%		
CCOC(=O)c1cnc(CNC(=O)CCS)nc1C(F)F	7%	18.8%	21.4%	29.7%	28.8%	19.2%	15.6%	24.8%	32.7%	36%		
O=C(CCCNC(=O)c1ccc(Cl)cc1)NCCS	15.2%	25.8%	19.2%	26.7%	24.1%	20.1%	21%	24.5%	19.6%	24.7%	30.7%	47.2%
CCOc1cc(C(=O)N(C)C)ccc1NC(=O)CCS	14%	39.2%	41.7%	31.2%	43.8%	33.2%	34.1%	32.4%	37%	57.6%		
CC(C(=O)NCCS)c1ccc2c(c1)OCCO2 (stereo not given)	17.2%	36%	29.7%	41%	29.7%	35.1%	25.7%	27.7%	28.3%	50%	60.5%	37.1%
CCCOc1ccc(C(F)(F)F)cc1NC(=O)CCS	15.2%	69.7%	18.1%	11.8%	17.6%	31%	13.7%	15.8%	9.8%	24.8%		
CC(C)c1ccc2cc(C(=O)NCCS)[nH]c2c1	9.9%	7.5%	5.5%	13%	4.6%	29.7%	0%	9.7%	4.5%	8%	32.7%	20.9%
NC(=O)c1cc(CNC(=O)CCS)n2c1COCC2	4.9%	16.4%	22.7%	14.4%	20%	8.9%	13.3%	15.9%	18.1%	22.7%		
CC(C(=O)NCCS)n1nnc(-c2ccccc2)n1 (stereo not given)	9.7%	18.7%	16.4%	32.4%	36.4%	32%	14.1%	20.1%	18.4%	26.1%	23.1%	26.7%
Cc1nn(C)c2[nH]c(=O)c(CCC(=O)NCCS)c(C)c12	16.7%	27.2%	43.8%	28.2%	37.6%	28.9%	29.5%	29.4%	21.6%	39.1%	46%	42.5%
COc1cccc(COC(C)C(=O)NCCS)c1 (stereo not given)	16.2%	33.7%	22%	33.9%	32.6%	28.1%	22.3%	31.1%	32.4%	55%	39.3%	38.1%
